Measurements taken from PubChem BioAssay AID1347070 (National Center for Advancing Translational Sciences (NCATS), 2019).
Among all 94,000 compounds or so, about 20 (0.02%) were called active. Inconclusive means that the source gave no clear call. Such entries were picked first, then a sample of the others. The call rests on the fitted dose curve; in most records, active means well fitted activation curve with a large enough effect; inconclusive means small, poorly fitted or top-dose-only effect; inactive means flat fitted curve, though single readings scatter. Potencies of inconclusive entries are left out as doubtful fits.

test: qHTS of alpha-syn Inhibitors: NCGC Sytravon Library Screen; on growth rescue (activation): 0% is about no effect; settings: S. cerevisiae alpha-synuclein toxicity rescue, BacTiter-Glo growth, 24 h; growth rescue (activation): at 46.1 µM (top of the series)
Outline: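 Growth restoration measured by BacTiter-Glo luminescence after 24 hr at 30 deg C; alpha-synuclein yeast, raffinose-pregrown to mid-log, were added at OD600=0.02 in galactose medium onto pinned compounds.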
Potency means the concentration at half of the fitted maximal effect; tags describe the fitted curve by direction and shape.

| Compound | Potency | growth rescue (activation) |
| --- | --- | --- |
| O=C(CCc1ccccc1)N1CCc2c([nH]c3ccccc23)C1c1ccc(F)cc1 (configuration not stated) | inconclusive [activator, partial curve] |  |
| CC(O)C(NS(=O)(=O)c1ccc(Cl)cc1)C(=O)OCC(=O)Nc1cccnc1Cl (configuration not stated) | inactive |  |
| Cc1c(Cl)cccc1-n1ncc(C(=O)Nc2ccc(F)cc2F)c1C1CCN(C(=O)OC(C)(C)C)CC1 | inconclusive [activator, single point] |  |
| Cc1cc(Cl)ccc1NS(=O)(=O)c1ccc2c(c1)CC(C)N2C(=O)C1CCC1 (configuration not stated) | inconclusive [activator, partial curve] |  |
| Cc1cc(O)c(/C=N/OCc2ccc(Cl)cc2Cl)c(=O)o1 |  | inconclusive: 81.3% [activator] |
| Cc1ccccc1CNC(=O)C(=O)NCC(c1cccs1)S(=O)(=O)c1ccc(Cl)cc1 (configuration not stated) | inconclusive [activator, single point] |  |
| CC(C)Cn1cc(C(=O)N2CCN(c3cccc(Cl)c3)CC2)c2c3ccccc3n(C)c2c1=O | inactive |  |
| O=C(NCc1ccc2c(c1)CCN2C(=O)c1ccccc1)c1ccco1 | inactive |  |
| CCn1c(C)c(C)c2cc(C(=O)NCc3cccc(C)c3)ccc21 | inconclusive [activator, single point] |  |
| CCN(C(=O)C1CCN(c2ncnc3c2nc2n3CCCCC2)CC1)c1cccc(Cl)c1 | inconclusive [activator, single point] |  |
| Cc1ccc(C(=O)COC(=O)CCC(=O)Nc2ccc(Oc3cc(C)ccc3C(C)C)cc2)cc1 | inconclusive [activator, partial curve] |  |
| CCOc1ccc(-c2cc3nc(C4CCN(C(=O)OC(C)(C)C)CC4)c(C(=O)Nc4ccc(C)cc4C)cn3n2)cc1 | inactive |  |
| CCOC(=O)c1c(C)oc2nc(C)nc(NCc3ccccc3OC)c12 | inconclusive [activator, single point] |  |
| O=C1OC(/C(=C\Nc2ccc(F)cc2F)[N+](=O)[O-])c2ccccc21 (configuration not stated) |  | inconclusive: 31% [activator] |
| CCc1nn(CC(=O)N2CCN(c3cccc(C(F)(F)F)c3)CC2)c(=O)c2cccn12 | inactive |  |
| Cc1cc(Nc2ccc(F)cc2)nc(-n2nc(C)cc2C)n1 | inactive |  |
| Cc1cc2c(cc3c(SCc4nc(-c5ccccc5)oc4C)nnc(C)n32)o1 | inconclusive [activator, single point] |  |
| Cc1ccc(C2c3[nH]c4ccccc4c3CCN2C(=O)CCC2CCCC2)cc1 (configuration not stated) |  | inconclusive: 30.7% [activator] |
| Cc1ccc(C2CCN(C(=O)c3cnn(-c4ccccc4Cl)c3C3CCN(C(=O)OC(C)(C)C)CC3)C2)cc1 (configuration not stated) | inconclusive [activator, single point] |  |
| COc1ccc(OC)c(NC(=O)CN2C(=O)CC(c3ccco3)Sc3ccccc32)c1 (configuration not stated) | inconclusive [activator, single point] |  |
| CCOCCCNC(=O)c1cnc2sc(N3CCCCCC3)nn2c1=O | inactive |  |
| CC1(c2cccc(Br)c2)NC(=O)N(CC(=O)c2ccc3c(c2)OCO3)C1=O (configuration not stated) |  | inconclusive: 30.2% [activator] |
| Cc1nc2scc(C)n2c(=O)c1S(=O)(=O)Nc1ccc(N2CCOCC2)c(Cl)c1 | inconclusive [activator, partial curve, poor fit] |  |

| Compound | Potency | growth rescue (activation) |
| --- | --- | --- |
| CCc1nnc(SC(CC)C(=O)Nc2cccc(OC)c2)c2cc3oc(C)cc3n12 (configuration not stated) | inconclusive [activator, single point] |  |
| CC1CCCC(NC(=O)COC(=O)c2ccccc2C(=O)N(C)C2CCCCC2)C1C (configuration not stated) | inactive |  |
| COc1cccc(N2CCN(C3C(=O)c4ccccc4N3C(C)=O)CC2)c1 (configuration not stated) | inconclusive [activator, partial curve] |  |
| Cc1ccc(C)c(N2CCN(C(=O)c3ccc(CS(=O)(=O)c4ccc(Br)cc4)o3)CC2)c1 | inconclusive [activator, single point] |  |
| Cc1ccc(-c2nc(C)c(CCNS(=O)(=O)c3ccccc3F)s2)cc1 | inconclusive [activator, single point] |  |
| Cc1ccc(O)c(NC(=O)c2cc(-c3ccco3)on2)c1 | inactive |  |
| O=C(CC1N=C2c3ccccc3N=C(SCc3cccc(F)c3)N2C1=O)NCc1cccs1 (configuration not stated) | inconclusive [activator, single point] |  |
| CC(=O)NCc1ccc(S(=O)(=O)NC2CCN(Cc3ccccc3)CC2)cc1 | inactive |  |
| Cc1ccc(-n2nc(C(=O)N(C)c3ccc(C)c(C)c3)c3c4ccccc4n(C)c3c2=O)cc1 | inconclusive [activator, single point] |  |
| CCCN1CCN(c2nnc(-n3cccc3C(=O)Nc3ccccc3C(F)(F)F)s2)CC1 | inactive |  |
| COc1ccc(-c2noc(N3CCC(C(=O)N4CCN(c5cccc(OC)c5)CC4)CC3)n2)cc1 | inconclusive [activator, single point] |  |
| CC(C)(C)c1csc(NNC(=O)c2ccc(Cl)cc2)n1 |  | inconclusive: 31.9% [activator] |
| O=C(NCc1cccc(Br)c1)C1CCCCN1S(=O)(=O)c1ccc(F)cc1 (configuration not stated) | inactive |  |
| CCN(C(=O)c1c(C)oc2ncnc(N3CCCCC3)c12)c1cc(C)ccc1C | inactive |  |
| COc1cc2c(cc1OC)C(COc1cc(C)cc(C)c1)N(C(=O)C(C)(C)C)CC2 (configuration not stated) | inconclusive [activator, single point] |  |
| CCCCN(CCCC)C(=O)c1c[nH]c2ccc(S(=O)(=O)Nc3cccc(Cl)c3C)cc2c1=O | inconclusive [activator, single point] |  |
| CCCN1C(C(=O)c2ccccc2)=C(OC(=O)COc2ccc(C)cc2)c2ccccc2S1(=O)=O |  | inconclusive: -67.5% [activator] |
| CC(C)CCNC(=O)c1ccc2nc(Cc3ccccc3)oc2c1 | inconclusive [activator, single point] |  |
| CN(CC(=O)Nc1cccc(F)c1)S(=O)(=O)c1ccc2c(c1)n(C)c(=O)c(=O)n2C | inconclusive [activator, single point] |  |
| Cc1onc(-c2ccccc2Cl)c1C(=O)OCc1nnc(-c2ccccc2)o1 | inactive |  |
| COc1ccc(OC)c(S(=O)(=O)NCCS(=O)(=O)N2CCN(c3ccccc3F)CC2)c1 | inconclusive [activator, single point] |  |
| Cc1nc(-c2ccccc2)sc1CCNS(=O)(=O)c1ccccc1 | inconclusive [activator, single point] |  |
| CCOC(=O)c1c(C)n(-c2ccccc2)c2ccc(OC(=O)c3ccccc3NC(=O)C(C)(C)C)cc12 | inconclusive [activator, single point] |  |

| Compound | Potency | growth rescue (activation) |
| --- | --- | --- |
| Cc1cccc(N2CCN(C(=O)CCSCc3ccccc3F)CC2)c1C | inconclusive [activator, single point] |  |
| CCC(Sc1nnc(C)n2c1cc1occc12)C(=O)Nc1ccccc1F (configuration not stated) | inconclusive [activator, single point] |  |
| CCOc1ccccc1N(C)C(=O)Cn1cnc2sc(C)c(S(=O)(=O)N3CCC(C)CC3)c2c1=O | inactive |  |
| O=C(CC1C(=O)OCCN1Cc1ccccc1)Nc1cccc(Cl)c1 (configuration not stated) | inactive |  |
| CCCc1cnc2c(c1SCc1cccc(C)c1)c(=O)n(C)c(=O)n2C | inactive |  |
| CCc1cccc(C)c1NC(=O)c1cc(S(=O)(=O)N(C)Cc2ccccc2)ccc1F | inactive |  |
| O=C(Nc1ccccc1Cl)c1ccc(F)c(S(=O)(=O)NCc2ccc(Cl)c(Cl)c2)c1 | inconclusive [activator, single point] |  |
| O=C(O)c1cccc(N2C(=O)C=CC2=O)c1 |  | inconclusive: 56.3% [activator] |
| Cc1ccc(C(=O)N2CC(=O)Nc3ccc(Br)cc3C2c2ccc(F)cc2)cc1C (configuration not stated) | inconclusive [activator, single point] |  |
| CC(=O)N1CCN(c2csc3ccc(Br)cc3c2=O)CC1 | inactive |  |
| CCc1ccccc1NC(=O)C(CC)Oc1ccccc1-c1nnc(-c2ccccc2)o1 (configuration not stated) | inconclusive [activator, single point] |  |
| CCOC(=O)CCCN1C(=O)CCn2nc(-c3cn(C)c4ccccc34)cc21 | inconclusive [activator, single point] |  |
| CCCCN1C(=O)C(CC(=O)NC(c2ccccc2)c2ccccc2)CC(C(=O)N2CCOCC2)=C1C (configuration not stated) | inactive |  |
| COC(=O)c1sccc1S(=O)(=O)N1CCN(c2ccc(Cl)cc2)CC1 | inconclusive [activator, single point] |  |
| CC(=O)c1ccc(C(=O)N(Cc2cccnc2)c2nc3c(C)c(C)ccc3s2)cc1 | inconclusive [activator, single point] |  |
| COc1ccc(N2C(=O)CCSC23C(=O)N(Cc2ccc(F)cc2)c2ccccc23)cc1 (configuration not stated) | inconclusive [activator, single point] |  |
| Cc1ccc(-c2onc(C)c2C)cc1S(=O)(=O)Nc1cccc(Cl)c1C | inactive |  |
| COc1ccc(-c2cc(C(F)(F)F)n3nc(C(=O)Nc4sc5c(c4C(=O)OC(C)C)CCC(C)C5)cc3n2)cc1 (configuration not stated) | inactive |  |
| O=C1C2ON(c3ccc(Cl)cc3)C(c3ccco3)C2C(=O)N1c1ccccc1 (configuration not stated) |  | inconclusive: 46.1% [activator] |
| COc1cccc(CNS(=O)(=O)c2cc(Br)ccc2Br)c1 |  | inconclusive: 42.3% [activator] |
| Cc1cc2oc(C(=O)N(Cc3ccccc3F)C3CCS(=O)(=O)C3)c(C)c2cc1Cl (configuration not stated) | inconclusive [activator, single point] |  |
